The record followed here is the BET-seq Pho4 binding data (Le et al. 2018).

The list shows a part of the results. These are noisy estimates, calculated here from bound and input reads.

The target of this experiment is T1, Pho4 (S. cerevisiae) (UniProt P07270).
T1 sequence: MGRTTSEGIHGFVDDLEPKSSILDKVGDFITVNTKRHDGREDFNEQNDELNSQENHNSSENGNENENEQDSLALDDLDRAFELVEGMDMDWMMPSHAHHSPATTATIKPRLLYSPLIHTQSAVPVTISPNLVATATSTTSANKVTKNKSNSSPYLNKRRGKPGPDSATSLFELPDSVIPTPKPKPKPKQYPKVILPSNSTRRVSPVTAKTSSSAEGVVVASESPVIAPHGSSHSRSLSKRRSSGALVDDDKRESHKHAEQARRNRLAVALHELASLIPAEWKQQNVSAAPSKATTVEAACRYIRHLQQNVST
Put plainly: relative binding free energy (BET-seq); higher = weaker binding. Conditions: reference: library average.
With TTGGGCACGTGTGCTA, the “relative binding free energy” value stood at 0.08 kcal/mol.

Turning to GTCGCCACGTGTGGTG, the “relative binding free energy” value was -0.09 kcal/mol.

Turning to TTCGGCACGTGATTTG, the “relative binding free energy” value was -0.03 kcal/mol.

In the case of TATTGCACGTGTAAGC, the “relative binding free energy” value was found to be 0.12 kcal/mol.

Turning to TGGCTCACGTGTAAGA, the “relative binding free energy” value was 0.31 kcal/mol.

As to TTTTCCACGTGGTCAG, the “relative binding free energy” value was found to be 0.01 kcal/mol.

In the case of TAGCGCACGTGGGGTC, the “relative binding free energy” value is -0.32 kcal/mol.

In the case of ATAGGCACGTGAATGA, the “relative binding free energy” value is 0.18 kcal/mol.

On to CCATGCACGTGAGGGG, for which the “relative binding free energy” value came to 0.24 kcal/mol.

Take AGACTCACGTGTTAGG: the “relative binding free energy” value was 0.25 kcal/mol.

Consider TTTGCCACGTGGAGGG, for which the “relative binding free energy” value was -0.13 kcal/mol.

As for TTTAGCACGTGAGGGT, the “relative binding free energy” value was 0.17 kcal/mol.

AATTACACGTGGGTTC: the “relative binding free energy” value is 0.02 kcal/mol.

Turning to AGGTTCACGTGTGAGG, the “relative binding free energy” value amounted to 0.31 kcal/mol.

In the case of CGGCGCACGTGGGGGG, the “relative binding free energy” value was -0.29 kcal/mol.

TGTGGCACGTGGAGGT: the “relative binding free energy” value is -0.04 kcal/mol.

Consider TTCTTCACGTGGTTTT, for which the “relative binding free energy” value came out at 0.29 kcal/mol.

On to TGCGGCACGTGGGGCT, for which the “relative binding free energy” value is -0.31 kcal/mol.

GTTAACACGTGTCGGT: the “relative binding free energy” value turned out to be 0.1 kcal/mol.

In the case of TATTGCACGTGTGTGA, the “relative binding free energy” value came out at 0.03 kcal/mol.

On to TCTCGCACGTGGTTGT, for which the “relative binding free energy” value was -0.01 kcal/mol.

On to GGTTGCACGTGTAATG, for which the “relative binding free energy” value is 0.13 kcal/mol.

GGGCACACGTGAAGGG: the “relative binding free energy” value came out at 0.32 kcal/mol.

For the sequence TTGCTCACGTGGTGGA, the “relative binding free energy” value was 0.15 kcal/mol.

Regarding GTTTGCACGTGGGGCG, the “relative binding free energy” value was -0.1 kcal/mol.

As for TATCGCACGTGGCTGT, the “relative binding free energy” value is -0.14 kcal/mol.

Take AGGAGCACGTGGGGCA: the “relative binding free energy” value is -0.19 kcal/mol.

For the sequence AATATCACGTGGTCAT, the “relative binding free energy” value worked out at 0.07 kcal/mol.

Consider TCATACACGTGTGGGG, for which the “relative binding free energy” value was determined as 0.03 kcal/mol.

Regarding ACGGGCACGTGGGGAA, the “relative binding free energy” value is -0.29 kcal/mol.

Take CGAAACACGTGTGTTG: the “relative binding free energy” value is 0.03 kcal/mol.

Consider GTTTGCACGTGCCAGG, for which the “relative binding free energy” value was 0.04 kcal/mol.

Take GTGTGCACGTGCCGTG: the “relative binding free energy” value is -0.13 kcal/mol.

Take TTGTGCACGTGTATAA: the “relative binding free energy” value is 0.04 kcal/mol.

Regarding GGTATCACGTGTCTAT, the “relative binding free energy” value was 0.09 kcal/mol.

On to CTGGTCACGTGGAGAT, for which the “relative binding free energy” value came out at 0.14 kcal/mol.

As for GTAATCACGTGTCGGT, the “relative binding free energy” value stood at 0.26 kcal/mol.

With TGGTGCACGTGCTCGT, the “relative binding free energy” value is -0.27 kcal/mol.

As for GTATGCACGTGGTATC, the “relative binding free energy” value was -0.06 kcal/mol.

Consider TTGACCACGTGTTTGG, for which the “relative binding free energy” value is -0.03 kcal/mol.

As to AATAGCACGTGGTAGG, the “relative binding free energy” value is -0.19 kcal/mol.

With AAGTACACGTGGTGTA, the “relative binding free energy” value was 0.04 kcal/mol.

Take TGGGTCACGTGACGCT: the “relative binding free energy” value was found to be 0.32 kcal/mol.

As to GGGGCCACGTGGGCAT, the “relative binding free energy” value was -0.27 kcal/mol.

For the sequence GATGTCACGTGTGGAC, the “relative binding free energy” value turned out to be 0.2 kcal/mol.

Consider TGTTGCACGTGACGGA, for which the “relative binding free energy” value stood at 0.01 kcal/mol.

With TTTTACACGTGATCTA, the “relative binding free energy” value was 0.18 kcal/mol.

Take CTGGGCACGTGATGGC: the “relative binding free energy” value was -0.05 kcal/mol.

On to GTTAACACGTGGGCGA, for which the “relative binding free energy” value amounted to 0.01 kcal/mol.

On to GATTGCACGTGAGGGT, for which the “relative binding free energy” value was 0.32 kcal/mol.

With TCGGGCACGTGTATGG, the “relative binding free energy” value was 0.05 kcal/mol.

For the sequence AGAGACACGTGTTATG, the “relative binding free energy” value was determined as 0.07 kcal/mol.

For the sequence GGATACACGTGTGAGG, the “relative binding free energy” value was determined as 0.19 kcal/mol.

Take GGCAGCACGTGGTATG: the “relative binding free energy” value is -0.14 kcal/mol.

As for ATCTGCACGTGGTAGT, the “relative binding free energy” value is -0.14 kcal/mol.

Regarding TGCTGCACGTGGATGT, the “relative binding free energy” value is -0.12 kcal/mol.

Take ACAGGCACGTGTGTAG: the “relative binding free energy” value is -0.07 kcal/mol.

As for ATTTTCACGTGACTTG, the “relative binding free energy” value amounted to 0.39 kcal/mol.

With GTTGGCACGTGTCGCG, the “relative binding free energy” value was -0.09 kcal/mol.

In the case of TCGGACACGTGGCTTG, the “relative binding free energy” value worked out at 0.08 kcal/mol.

Consider GTGGACACGTGTTAGC, for which the “relative binding free energy” value was 0.08 kcal/mol.

Turning to GGAGGCACGTGATTAT, the “relative binding free energy” value is 0.13 kcal/mol.

ATGGGCACGTGTTGTA: the “relative binding free energy” value is -0.13 kcal/mol.

In the case of ATTTTCACGTGGTACA, the “relative binding free energy” value was 0.2 kcal/mol.

In the case of AAGGTCACGTGGTCGG, the “relative binding free energy” value is -0.09 kcal/mol.

With TAGAGCACGTGGTTGG, the “relative binding free energy” value was -0.07 kcal/mol.

As to CGGGTCACGTGAGGAA, the “relative binding free energy” value stood at 0.31 kcal/mol.

As for TGTTGCACGTGTGTCC, the “relative binding free energy” value was -0.02 kcal/mol.

As to GTGGTCACGTGGGTTT, the “relative binding free energy” value was 0.09 kcal/mol.

As for CGAAGCACGTGTGGAG, the “relative binding free energy” value is 0.07 kcal/mol.

For the sequence ATAGGCACGTGCTCGT, the “relative binding free energy” value was -0.18 kcal/mol.

Take GGTTCCACGTGTTAGG: the “relative binding free energy” value was 0.07 kcal/mol.

With TTTAGCACGTGGATAT, the “relative binding free energy” value is -0.13 kcal/mol.

Consider TAGCGCACGTGAAGGG, for which the “relative binding free energy” value is 0.13 kcal/mol.

TTCATCACGTGACTTT: the “relative binding free energy” value stood at 0.38 kcal/mol.

As for TGTATCACGTGAGGTC, the “relative binding free energy” value was 0.14 kcal/mol.

In the case of TATATCACGTGGGTGT, the “relative binding free energy” value worked out at 0.02 kcal/mol.

GTTTGCACGTGTAAGG: the “relative binding free energy” value came out at 0.14 kcal/mol.

On to GTAAGCACGTGACGGG, for which the “relative binding free energy” value was determined as 0.13 kcal/mol.

For the sequence AGGTACACGTGAGGAT, the “relative binding free energy” value was found to be 0.2 kcal/mol.

Turning to ACGAGCACGTGGTAGT, the “relative binding free energy” value was -0.18 kcal/mol.

For the sequence TGTATCACGTGGTTAG, the “relative binding free energy” value amounted to 0.08 kcal/mol.

With AGGTTCACGTGAAACG, the “relative binding free energy” value turned out to be 0.51 kcal/mol.

Turning to ATTCGCACGTGTGGAA, the “relative binding free energy” value came out at 0.18 kcal/mol.

Turning to GCAGACACGTGGATGG, the “relative binding free energy” value is 0.09 kcal/mol.

Regarding TACGGCACGTGGTGAG, the “relative binding free energy” value is -0.18 kcal/mol.

On to GTTCGCACGTGGTAAA, for which the “relative binding free energy” value was determined as 0.06 kcal/mol.

On to CTATTCACGTGTTGAG, for which the “relative binding free energy” value amounted to 0.17 kcal/mol.

In the case of TTGCCCACGTGTTTGT, the “relative binding free energy” value is -0.09 kcal/mol.

Regarding GGTGGCACGTGTTCAT, the “relative binding free energy” value is 0.01 kcal/mol.

Consider AGATTCACGTGTGGAG, for which the “relative binding free energy” value was found to be 0.27 kcal/mol.

On to GTTGACACGTGGGCGG, for which the “relative binding free energy” value is -0.13 kcal/mol.

As to TATGTCACGTGGTTTC, the “relative binding free energy” value stood at 0.02 kcal/mol.

On to GGCCTCACGTGGTTTG, for which the “relative binding free energy” value came to 0.17 kcal/mol.

For TAGTGCACGTGTTGCA, the “relative binding free energy” value was -0.15 kcal/mol.

ACTGGCACGTGGGGCT: the “relative binding free energy” value is -0.32 kcal/mol.

As for TTTTGCACGTGTAAAA, the “relative binding free energy” value was found to be 0.03 kcal/mol.

For the sequence GTCGACACGTGTTTGG, the “relative binding free energy” value is 0.13 kcal/mol.

Take TTTGTCACGTGTCGGA: the “relative binding free energy” value was determined as 0.07 kcal/mol.

Turning to TGGCTCACGTGTAAGG, the “relative binding free energy” value came out at 0.24 kcal/mol.

Take TTGCGCACGTGCGTGT: the “relative binding free energy” value was -0.14 kcal/mol.

For GGGGGCACGTGGATGT, the “relative binding free energy” value was 0.03 kcal/mol.

With TAAATCACGTGGTTAG, the “relative binding free energy” value came to 0.15 kcal/mol.

CAGTTCACGTGGCGTG: the “relative binding free energy” value stood at 0.06 kcal/mol.

As for TCTGTCACGTGTAGCT, the “relative binding free energy” value was determined as 0.13 kcal/mol.

Turning to TGGTGCACGTGTGGTC, the “relative binding free energy” value amounted to 0.11 kcal/mol.

For TAGGGCACGTGCGAGT, the “relative binding free energy” value was -0.15 kcal/mol.

Regarding GGCGGCACGTGAGTCG, the “relative binding free energy” value was 0.2 kcal/mol.

With GTAGGCACGTGATACG, the “relative binding free energy” value is -0.05 kcal/mol.

On to TTGGCCACGTGGGATG, for which the “relative binding free energy” value is -0.2 kcal/mol.

For the sequence TACTTCACGTGATGAT, the “relative binding free energy” value came to 0.24 kcal/mol.

On to GTTTGCACGTGGCCAG, for which the “relative binding free energy” value amounted to 0 kcal/mol.

In the case of GTAGTCACGTGAGTGT, the “relative binding free energy” value turned out to be 0.21 kcal/mol.

As to GTGGTCACGTGTTCTC, the “relative binding free energy” value came out at 0.17 kcal/mol.

CTGATCACGTGTGGTG: the “relative binding free energy” value came to 0.12 kcal/mol.
